In the supplement of paper PMC3334620:
In all, about 33,000 sequences were measured (“E-score (-0.5 to 0.5)”: median about -0.016, highest 2% from about 0.32 on). This is one part of the list.

Biological target: T1, Stp1 (UniProt B3LFK1)
T1 sequence: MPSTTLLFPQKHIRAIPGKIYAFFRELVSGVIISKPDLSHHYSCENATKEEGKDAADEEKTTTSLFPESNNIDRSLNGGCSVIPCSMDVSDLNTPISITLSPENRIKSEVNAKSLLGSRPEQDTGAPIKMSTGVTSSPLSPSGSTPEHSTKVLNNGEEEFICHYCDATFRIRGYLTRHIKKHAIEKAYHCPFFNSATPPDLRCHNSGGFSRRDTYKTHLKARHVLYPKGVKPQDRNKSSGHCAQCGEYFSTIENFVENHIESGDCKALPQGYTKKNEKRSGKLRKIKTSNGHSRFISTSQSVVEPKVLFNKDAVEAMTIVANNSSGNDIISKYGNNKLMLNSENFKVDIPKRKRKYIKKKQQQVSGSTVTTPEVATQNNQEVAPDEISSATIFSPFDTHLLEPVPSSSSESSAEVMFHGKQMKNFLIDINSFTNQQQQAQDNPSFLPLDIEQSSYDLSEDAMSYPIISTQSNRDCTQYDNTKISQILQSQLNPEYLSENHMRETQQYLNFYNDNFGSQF
Experiment: PBM E-score (8-mer binding enrichment) (E-score (-0.5 to 0.5)); higher = stronger / more preferred TF binding; most listed sequences are background and not binding sites
Conditions: protein concentration: 200 nM; construct: GST-full length
Outline: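 Detection of bound protein used fluorescent anti-GST, with scans normalised by masliner. The proteins were GST-tagged yeast transcription factors applied at about 100-200 nM to universal all-10-mer Agilent arrays made double-stranded by primer extension. Each ungapped eight-base word, pooled with its reverse complement, was scored with an E-score from the Universal PBM Analysis Suite.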

Row | Sequence | PBM E-score
1 | AGGATTAT | -0.0874
2 | CAGGCATC | -0.0407
3 | CCAAAAGC | 0.0456
4 | AGCATACC | -0.18
5 | ATCAGGTG | -0.073
6 | ATGTATCG | 0.104
7 | GTGTAAAC | 0.0438
8 | AAGGCATC | 0.292
9 | CTAAAGCA | 0.0413
10 | AGAGACTC | -0.182
11 | CGAGTGCG | 0.124
12 | CTAGAGTC | -0.33
13 | CTTCTTCC | -0.345
14 | AAGACGAC | -0.0773
15 | AGCCAACC | -0.11
16 | TGAGATCA | 0.0358
17 | ACACTGCA | -0.12
18 | ACGTTTGG | -0.134
19 | ACCGGGGA | -0.205
20 | GAGAGGAA | -0.144
21 | CGCGTCAG | -0.144
22 | ATACTCAT | -0.0632

Row | Sequence | PBM E-score
23 | AATCAAAT | 0.0218
24 | ACCAGAAC | 0.0149
25 | AGAAAGGA | 0.031
26 | ATTTAACA | 0.165
27 | ATGGACAA | 0.0579
28 | AGGGTATG | -0.182
29 | AGGCAGGC | -0.178
30 | CCAATTCC | 0.0111
31 | ATTATCGC | 0.195
32 | CGGAAAAA | 0.13
33 | AACTGTGG | -0.116
34 | GCGTGTCC | 0.0627
35 | ACACATGT | -0.0142
36 | ATCCGCTA | 0.0033
37 | CATTCAGA | 0.0253
38 | GGTTGAAC | -0.141
39 | ACCTGGGC | -0.282
40 | AAGAATCA | 0.107
41 | CATTAACG | -0.0249
42 | CCCCGGGG | -0.156
43 | GCACGTGA | 0.135
44 | AACTTAAC | 0.0947

Row | Sequence | PBM E-score
45 | ACTACTTG | -0.14
46 | ATTTCTAC | -0.0455
47 | ATACCGTG | 0.165
48 | CAATCCCG | 0.0775
49 | GAAGCACA | 0.0238
50 | ACCCCGGA | -0.193
51 | TGTACACA | 0.02
52 | GCACTCAA | -0.0729
53 | CGCATAAA | 0.149
54 | ATATCACG | 0.0824
55 | ATTAAGAC | -0.0306
56 | CCTGATTC | -0.117
57 | CTGACAAA | -0.0186
58 | AAAGGATT | -0.109
59 | CAACCACA | 0.018
60 | AAAGTGCT | 0.0147
61 | AAAAGGCA | 0.359
62 | AGCACCGA | 0.0493
63 | ATACTGGA | 0.0791
64 | TCCAATAA | 0.124
65 | AACGTACT | 0.105
66 | CGCCCCGC | 0.221

Row | Sequence | PBM E-score
67 | ACATAGAC | -0.133
68 | GACTGCAA | -0.203
69 | ACACATCC | -0.0264
70 | ATAGCCTG | -0.192
71 | AAGCCCAG | -0.246
72 | AAGGCAAT | 0.253
73 | GGTGTTGA | -0.197
74 | CACCTGCG | 0.0421
75 | ATATTGGC | -0.0622
76 | AAGCACCT | -0.0394
77 | GCATAAAA | 0.165
78 | CTCGGCAG | 0.117
79 | AAGTGCGT | -0.0479
80 | CCGGGTGA | -0.0814
81 | ATGTGAGC | -0.14
82 | TCAGGTCA | -0.127
83 | AAGATAGC | -0.138
84 | AAGCTTTG | -0.24
85 | ACTCGTGA | 0.00227
86 | AACGTTCG | -0.0547
87 | CGTCCCGC | -0.0544
88 | ACTTTAAT | 0.111

Row | Sequence | PBM E-score
89 | ATGCAGTA | 0.0835
90 | ATCCGCTG | -0.127
91 | AACTTCCG | -0.125
92 | GAAAGAGA | -0.135
93 | CTTCTAGA | -0.0372
94 | ACCGTCCC | -0.184
95 | GTATTCAA | 0.187
96 | AACAGAAT | -0.0815
97 | ACGGAGCG | 0.0847
98 | ACACTGCT | -0.0685
99 | CTCTCCGA | -0.00825
100 | GTACCCGA | -0.312
101 | CTAAATCA | 0.0365
102 | AGAAATAG | 0.00058
103 | GATACACA | -0.0121
104 | CATTTTGG | 0.114
105 | AGGTTCTG | -0.137
106 | CCTACATA | -0.12
107 | GGGTCTGA | -0.381
108 | AGTCGAAA | -0.146
109 | GTGGCATA | 0.0347
